The other results are listed elsewhere or left out. The energies were worked out here from pooled read counts, against the library average; single values are noisy.

The target in the test is T1, Pho4 (S. cerevisiae) (UniProt P07270).
T1 sequence: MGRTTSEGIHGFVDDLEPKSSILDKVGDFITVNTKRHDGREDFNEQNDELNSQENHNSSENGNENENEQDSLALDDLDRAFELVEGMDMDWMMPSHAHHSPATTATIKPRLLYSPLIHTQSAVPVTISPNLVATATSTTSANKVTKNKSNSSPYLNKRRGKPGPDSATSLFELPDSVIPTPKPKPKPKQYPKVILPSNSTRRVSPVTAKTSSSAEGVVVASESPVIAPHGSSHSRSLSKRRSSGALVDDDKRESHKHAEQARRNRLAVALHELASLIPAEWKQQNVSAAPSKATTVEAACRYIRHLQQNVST
Put plainly: relative binding free energy (BET-seq); higher = weaker binding. Particulars: reference: library average.
Take GCGGGCACGTGTGGTC: the “relative binding free energy” value is -0.12 kcal/mol.

Consider GGCTGCACGTGCGGTT, for which the “relative binding free energy” value is -0.01 kcal/mol.

With ATTCTCACGTGTTTTC, the “relative binding free energy” value was determined as 0.25 kcal/mol.

GTGTGCACGTGAGACA: the “relative binding free energy” value stood at 0.24 kcal/mol.

Consider GTGAACACGTGTTGGG, for which the “relative binding free energy” value was 0 kcal/mol.

GGAGTCACGTGAATAG: the “relative binding free energy” value was found to be 0.39 kcal/mol.

Consider GGGTGCACGTGGCATT, for which the “relative binding free energy” value is -0.07 kcal/mol.

Turning to AAGCTCACGTGCGGGT, the “relative binding free energy” value is 0.19 kcal/mol.

Turning to GTAATCACGTGTTGAG, the “relative binding free energy” value came out at 0.32 kcal/mol.

On to TGGTTCACGTGGGGGT, for which the “relative binding free energy” value is 0.2 kcal/mol.

As for AGTGCCACGTGTTGTA, the “relative binding free energy” value came to 0.01 kcal/mol.

Regarding CCGGGCACGTGGCGGG, the “relative binding free energy” value is -0.14 kcal/mol.

As to TGTAACACGTGAGAAT, the “relative binding free energy” value turned out to be 0.51 kcal/mol.

On to AATATCACGTGTGTGG, for which the “relative binding free energy” value turned out to be 0.09 kcal/mol.

On to ATTGGCACGTGATATT, for which the “relative binding free energy” value was -0.05 kcal/mol.

TGAGGCACGTGGAGTC: the “relative binding free energy” value is -0.04 kcal/mol.

Consider GTGTACACGTGATATT, for which the “relative binding free energy” value was found to be 0.28 kcal/mol.

Take TCGTGCACGTGAGATG: the “relative binding free energy” value turned out to be 0.2 kcal/mol.

Consider CATTACACGTGGGGGT, for which the “relative binding free energy” value is -0.08 kcal/mol.

For CTCGGCACGTGAGGTA, the “relative binding free energy” value turned out to be 0.14 kcal/mol.

As to TTGGTCACGTGTGTCA, the “relative binding free energy” value amounted to 0.19 kcal/mol.

Turning to AGTTTCACGTGAGTCA, the “relative binding free energy” value stood at 0.38 kcal/mol.

With TTCGACACGTGGTGCT, the “relative binding free energy” value worked out at 0 kcal/mol.

In the case of GAGGTCACGTGGAGTA, the “relative binding free energy” value was determined as 0.06 kcal/mol.

As to AGCGTCACGTGGAGGA, the “relative binding free energy” value worked out at 0.07 kcal/mol.

On to GGTTACACGTGATTTG, for which the “relative binding free energy” value was determined as 0.22 kcal/mol.

In the case of GACGGCACGTGCGGTA, the “relative binding free energy” value is 0 kcal/mol.

With AAATGCACGTGTTGCG, the “relative binding free energy” value is -0.03 kcal/mol.

For TTTCACACGTGTCTGG, the “relative binding free energy” value amounted to 0.03 kcal/mol.

Consider GGTAACACGTGAAGGT, for which the “relative binding free energy” value is 0.31 kcal/mol.

On to AGAGGCACGTGGGTTA, for which the “relative binding free energy” value is -0.21 kcal/mol.

Turning to TTGACCACGTGGTTGT, the “relative binding free energy” value is -0.18 kcal/mol.

Turning to TAAATCACGTGGTGTG, the “relative binding free energy” value came to 0.07 kcal/mol.

As for GTATTCACGTGTTTTA, the “relative binding free energy” value is 0.14 kcal/mol.

AAGTGCACGTGTTATG: the “relative binding free energy” value was -0.11 kcal/mol.

On to TGGATCACGTGTCGAG, for which the “relative binding free energy” value was 0.16 kcal/mol.

Regarding GTTTACACGTGTAGGG, the “relative binding free energy” value is 0.24 kcal/mol.

Consider AGTTTCACGTGTTTTA, for which the “relative binding free energy” value was 0.31 kcal/mol.

Turning to ATCGTCACGTGAGTGG, the “relative binding free energy” value worked out at 0.21 kcal/mol.

ACAGGCACGTGTCGGG: the “relative binding free energy” value was -0.03 kcal/mol.

On to TTCTTCACGTGAATTG, for which the “relative binding free energy” value amounted to 0.35 kcal/mol.

Consider AGGGGCACGTGTGTGA, for which the “relative binding free energy” value is -0.23 kcal/mol.

As to TTATTCACGTGGTATT, the “relative binding free energy” value was 0.25 kcal/mol.

On to TGGTCCACGTGGTTAT, for which the “relative binding free energy” value stood at 0.06 kcal/mol.

GGAGCCACGTGGGTTA: the “relative binding free energy” value was -0.19 kcal/mol.

As to GATTTCACGTGGTTGA, the “relative binding free energy” value stood at 0.26 kcal/mol.

On to AATTTCACGTGTATTC, for which the “relative binding free energy” value was determined as 0.28 kcal/mol.

As to GTATACACGTGTATGA, the “relative binding free energy” value amounted to 0 kcal/mol.

Turning to GGTAACACGTGGCGGA, the “relative binding free energy” value came to 0.09 kcal/mol.

For the sequence TGAAGCACGTGTATTG, the “relative binding free energy” value was -0.1 kcal/mol.

For the sequence TGATACACGTGTTCTT, the “relative binding free energy” value was found to be 0 kcal/mol.

For the sequence TTGTGCACGTGAACTT, the “relative binding free energy” value stood at 0.1 kcal/mol.

For CCATTCACGTGGGGGA, the “relative binding free energy” value amounted to 0.26 kcal/mol.

As for AGTATCACGTGTCTGG, the “relative binding free energy” value is 0.22 kcal/mol.

For the sequence GATTGCACGTGTTCGG, the “relative binding free energy” value was determined as 0.16 kcal/mol.

As for GAGTTCACGTGATGTG, the “relative binding free energy” value is 0.35 kcal/mol.

In the case of TAATGCACGTGCATGG, the “relative binding free energy” value is -0.07 kcal/mol.

Take GTTTGCACGTGCTATG: the “relative binding free energy” value is -0.01 kcal/mol.

Consider GGTCACACGTGAGTAT, for which the “relative binding free energy” value stood at 0.3 kcal/mol.

For the sequence TAGATCACGTGTGAGT, the “relative binding free energy” value came out at 0.24 kcal/mol.

GATCACACGTGTGGGT: the “relative binding free energy” value is 0.15 kcal/mol.

On to GGGTGCACGTGAGAAT, for which the “relative binding free energy” value amounted to 0.17 kcal/mol.

Take TATAGCACGTGGGGAG: the “relative binding free energy” value was -0.25 kcal/mol.

GAAATCACGTGGGTTG: the “relative binding free energy” value is 0.03 kcal/mol.

Regarding TGTCGCACGTGTAACG, the “relative binding free energy” value stood at 0.27 kcal/mol.

Take TTGATCACGTGGTGGC: the “relative binding free energy” value worked out at 0.04 kcal/mol.

For CCGTGCACGTGTGGGT, the “relative binding free energy” value was -0.05 kcal/mol.

With GTCGACACGTGGTGTA, the “relative binding free energy” value is -0.07 kcal/mol.

TGGGTCACGTGAGCCT: the “relative binding free energy” value worked out at 0.18 kcal/mol.

With AGCTTCACGTGAATTT, the “relative binding free energy” value was found to be 0.39 kcal/mol.

Regarding GGCGGCACGTGTGGGA, the “relative binding free energy” value stood at 0 kcal/mol.

For CTGGTCACGTGCGTCG, the “relative binding free energy” value turned out to be 0.05 kcal/mol.

For the sequence CGGGGCACGTGAGCGA, the “relative binding free energy” value is 0.08 kcal/mol.

The values are drawn from the BET-seq Pho4 binding data (Le et al. 2018).
